The whole screen tested about 310,000 compounds, of which about 2,200 (0.71%) showed an effect of 50% or more. Effects have a minus sign here. The list shows a part of the results.
The compounds below were run against human ether-à-go-go-related gene (hERG) potassium channel (human, UniProt Q12809) (assay: primary screen, population patch clamp on CHO cells stably expressing hERG).
human ether-à-go-go-related gene (hERG) potassium channel, sequence (Q12809 whole entry, looked up): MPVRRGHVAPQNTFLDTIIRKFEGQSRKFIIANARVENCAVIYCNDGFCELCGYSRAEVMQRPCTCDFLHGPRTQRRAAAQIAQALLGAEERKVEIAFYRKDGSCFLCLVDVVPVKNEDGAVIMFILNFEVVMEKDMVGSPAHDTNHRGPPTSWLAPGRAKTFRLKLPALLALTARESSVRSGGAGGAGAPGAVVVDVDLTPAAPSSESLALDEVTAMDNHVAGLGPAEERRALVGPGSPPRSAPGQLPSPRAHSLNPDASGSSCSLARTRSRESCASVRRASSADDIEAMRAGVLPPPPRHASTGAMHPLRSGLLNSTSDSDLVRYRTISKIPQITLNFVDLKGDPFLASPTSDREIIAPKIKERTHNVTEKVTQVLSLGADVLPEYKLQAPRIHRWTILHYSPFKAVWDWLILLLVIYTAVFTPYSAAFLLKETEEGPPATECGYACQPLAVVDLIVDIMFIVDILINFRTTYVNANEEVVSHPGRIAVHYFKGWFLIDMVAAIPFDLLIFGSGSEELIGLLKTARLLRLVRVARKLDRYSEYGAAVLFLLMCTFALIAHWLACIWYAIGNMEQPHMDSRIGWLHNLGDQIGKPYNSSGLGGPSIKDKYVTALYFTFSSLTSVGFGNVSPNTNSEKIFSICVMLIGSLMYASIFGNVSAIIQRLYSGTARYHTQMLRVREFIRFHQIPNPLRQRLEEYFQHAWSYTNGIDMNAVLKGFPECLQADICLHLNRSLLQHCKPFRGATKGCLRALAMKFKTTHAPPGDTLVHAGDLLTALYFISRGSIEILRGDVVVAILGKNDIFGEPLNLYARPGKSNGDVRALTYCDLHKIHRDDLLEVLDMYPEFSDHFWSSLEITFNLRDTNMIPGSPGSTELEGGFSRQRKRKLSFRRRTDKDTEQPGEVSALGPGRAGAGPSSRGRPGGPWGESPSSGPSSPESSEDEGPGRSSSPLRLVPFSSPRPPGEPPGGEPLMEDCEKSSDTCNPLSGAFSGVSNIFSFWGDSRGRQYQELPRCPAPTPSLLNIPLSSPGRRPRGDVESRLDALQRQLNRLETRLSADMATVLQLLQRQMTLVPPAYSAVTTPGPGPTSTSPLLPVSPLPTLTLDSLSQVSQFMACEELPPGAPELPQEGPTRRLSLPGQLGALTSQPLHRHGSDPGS

Compound | hERG current change (%, negative = inhibition) at 1uM [%]
Cn1c(N)c(C(=O)COC(=O)/C=C/c2cccc(Br)c2)c(=O)n(C)c1=O | 9.1
CCCC(=O)Nc1ccc2nc(C)n(Cc3ccccc3Cl)c(=O)c2c1 | 12.5
COC(=O)C1=C(O)CSC1=Nc1ccc(C)cc1 | 7.6
Cn1c(C(=O)N2CCOCC2)cnc1Sc1ncc(C(F)(F)F)cc1Cl | 4.99
CCOC(=O)/C=C1\Nc2ccccc2OC1=O | 10.1
Cc1cccc(NC(=O)c2cc(-c3cccnc3)nc3c(C)cccc23)n1 | 3.78
CCOc1cc(/C=C/c2nc3ccccc3c(=O)[nH]2)cc(Br)c1OC | 12.9
CC(=O)N1CCN(C(=O)CCc2c[nH]c3ccccc23)CC1 | 16.2
CCS(=O)(=O)n1c(Cc2cccs2)nc2ccccc21 | 13.1
O=C(Nc1ccc(F)cc1)OCCOc1ccc(Br)cc1 | 15.5
CC(C)C(c1nnnn1Cc1ccc(F)cc1)N1CCC(C(N)=O)CC1.Cl (stereo not drawn) | 21.7
COc1ccc(NC(=S)NC23CN4CN(CN(C4)C2)C3)c(OC)c1 | -13.8
COc1ccc(/C=N/Nc2ccccc2)cc1Cn1nc(C)c([N+](=O)[O-])c1C | 9.15
CCN(CC)c1ccc(NC(=O)CN2CCN(CC(=O)Nc3ccc(OC)cc3)CC2)cc1 | -59.5
O=C(Nc1cccnc1Cl)C1CCCN(c2ncnc3c2nc2n3CCCCC2)C1 (stereo not drawn) | -8.45
Cc1c(C(=O)Nc2ccncc2)sc2nc(-c3ccc(F)cc3)cn12 | 2.27
CCN(CC)CCNC(=O)Cn1c(-c2ccccn2)nc2ccccc21 | -14.6
CCn1c(=NC(=O)CN2C(=O)CCC2=O)sc2c(OC)ccc(OC)c21 | 14.9
O=C(c1ccc2c(=O)n(-c3ccccc3)c(=O)[nH]c2c1)N1CCN(c2ccc(F)cc2)CC1 | 10.3

Compound | hERG current change (%, negative = inhibition) at 1uM [%]
CCC1CCCCN1C(=O)Nc1ccc(F)cc1 (stereo not drawn) | 21.2
COc1ccc(SCC(=O)Nc2ccc(N3CCN(C)CC3)c(F)c2)cc1 | -11.2
Clc1ccc(-n2ncc3c(NCC4CCCO4)ncnc32)cc1 (stereo not drawn) | 3.75
COCCN(CC(=O)Nc1ccc(F)cc1)S(=O)(=O)c1ccc(S(=O)(=O)N2CCCC2)cc1 | 10.5
O=C1CC(C(=O)N(c2ccccc2)C(C(=O)NC2CCCC2)c2ccncc2)CS1 (stereo not drawn) | 12.4
NP(=O)(OCCCc1ccccc1)Oc1ccccc1Cl (stereo not drawn) | 8.97
CSc1ccccc1C(=O)NCC(c1ccco1)N(C)C (stereo not drawn) | 22.2
Cc1ccc(-c2nn3c(C)nnc3s2)cc1NC(=O)C(C)C | 14.8
CC(=O)O[C@]1(C)C(=O)OC/C2=C/CN(C)CCC(OC(=O)[C@@](O)(C(C)O)C[C@H]1C)C2=O (stereo partly drawn) | 1.42
NC(=O)N/N=C/c1cc(F)cc(F)c1 | 11.4
COc1ccc(CCN2C(=S)NC3CC2(C)Oc2ccc([N+](=O)[O-])cc23)cc1OC (stereo not drawn) | -10.1
Cc1cccc(NC(=O)NNC(=O)COc2ccc(Cl)cc2)c1 | 11.4
COc1cccc(-c2sc3ccc(OC)cc3c2C#CC(C)(C)O)c1 | 13.8
O=C(Nc1nccs1)c1ccc(COc2ccccc2Cl)o1 | 7.69
O=C(O)/C=C\C(=O)Nc1ccc(N2CCN(c3ccc(Cl)c(Cl)c3)CC2)cc1 | 16.3
Cc1ccc(C(=O)NC(=S)NCc2ccccc2)cc1Br | 4.54
O=C(NCc1cccnc1)c1cccn2c(=O)c3sccc3nc12 | -16.3
Cc1nn(C)c(Cl)c1CN1CCN(CCC(C)C)C(CCO)C1 (stereo not drawn) | 9.94
CC(C)(C)NC(=O)C(c1ccncc1)N(C(=O)Cn1nnc(-c2ccc(F)cc2)n1)c1ccccc1 (stereo not drawn) | 8.88

Compound | hERG current change (%, negative = inhibition) at 1uM [%]
CCOc1ccc(CC(=O)Nc2nccs2)cc1 | -9.48
COc1cccc(N2CC(C(=O)Nc3ccc(F)cc3)CC2=O)c1 (stereo not drawn) | 10.6
CN1C(=S)SC(C)(C)C1(C)NO (stereo not drawn) | 10.6
O=C(Oc1ccccc1N1C(=O)C2CCCCC2C1=O)c1ccc(Cl)cc1 (stereo not drawn) | 6.32
Cl.c1ccc2c(N3CCNCC3)cccc2c1 | 13.5
COc1cc(NS(=O)(=O)c2ccc(NC(=S)NC(=O)C3CCCC3)cc2)nc(OC)n1 | -1.13
NS(=O)(=O)c1ccc(NC(=O)CCCC(=O)O)cc1 | 0.755
Cc1ccccc1Cn1ccc(NC(=O)c2cnn3c(C(F)(F)F)cc(-c4ccco4)nc23)n1 | 12.9
O=C(Cc1cccc(C(F)(F)F)c1)OCN1C(=O)c2ccccc2C1=O | 9.89
CN(C)c1cc(-c2ccc(Cl)cc2)oc(=O)c1Cl | 7.71
Nc1nc(SCc2ccccc2Cl)n[nH]1 | 14
O=c1c2ccccc2nc(SCc2cn3ccsc3n2)n1-c1ccc(F)cc1 | 11
COc1ccc(CN(C(=O)c2ccco2)c2ccccc2)cc1 | 9.85
CCc1nn(CC(=O)NCCCc2ccccc2)c(=O)c2cc3cc(F)ccc3n12 | 5.07
COc1ccc(CC(=O)NCC2CCCN(Cc3cccc(SC)c3)C2)cc1 (stereo not drawn) | -7.33
CCOc1cc(/C=C(\C#N)C(=O)NCC2CCCO2)ccc1OCC(N)=O (stereo not drawn) | 19.4
O=C(CSc1nnc(-c2cccs2)n1Cc1ccco1)c1ccc2c(c1)OCO2 | -0.841
COCCN1C(=O)N(c2cccc(OC)c2)C(=O)C1CC(=O)Nc1ccc(OC)cc1 (stereo not drawn) | 2.61
COc1ccc(N(CC(=O)NN=C2CCCC2)S(=O)(=O)c2ccccc2)cc1Cl | 11.1

From article PMC4336329 (PLoS ONE, 2015)
